# Measurements from the supplement of paper PMC3334620.
# The full ranking holds about 33,000 sequences; the median of “E-score (-0.5 to 0.5)” is about -0.032, and the highest 2% start at about 0.36. Some of the results follow.
# Molecular target: T1, Sko1 (UniProt Q02100)
# T1 sequence: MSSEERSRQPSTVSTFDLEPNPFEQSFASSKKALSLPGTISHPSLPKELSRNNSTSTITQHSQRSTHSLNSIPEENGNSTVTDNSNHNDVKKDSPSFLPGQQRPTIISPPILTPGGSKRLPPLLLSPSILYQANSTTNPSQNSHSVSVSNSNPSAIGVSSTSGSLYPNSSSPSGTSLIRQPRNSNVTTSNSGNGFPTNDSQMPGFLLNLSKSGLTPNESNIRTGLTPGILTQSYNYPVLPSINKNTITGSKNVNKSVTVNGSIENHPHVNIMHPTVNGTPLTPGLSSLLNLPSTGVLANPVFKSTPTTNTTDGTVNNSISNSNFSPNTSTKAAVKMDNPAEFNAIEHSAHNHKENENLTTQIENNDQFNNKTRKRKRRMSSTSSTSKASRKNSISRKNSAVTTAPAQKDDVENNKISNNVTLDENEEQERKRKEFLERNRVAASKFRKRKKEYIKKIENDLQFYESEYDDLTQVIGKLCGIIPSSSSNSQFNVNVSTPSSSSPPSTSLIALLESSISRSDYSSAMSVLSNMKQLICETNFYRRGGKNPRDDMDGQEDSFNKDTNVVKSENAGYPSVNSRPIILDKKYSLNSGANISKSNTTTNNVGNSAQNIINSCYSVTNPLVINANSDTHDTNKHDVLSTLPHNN
# Assay: PBM E-score (8-mer binding enrichment) (E-score (-0.5 to 0.5)); higher = stronger / more preferred TF binding; most listed sequences are background and not binding sites
# Details: protein concentration: 200 nM; construct: GST-full length
# In short: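 Bound GST-tagged yeast transcription factors, applied at about 100-200 nM to double-stranded universal all-10-mer Agilent arrays, were detected with fluorescent anti-GST. Scans were normalised with masliner. A modified Wilcoxon-Mann-Whitney statistic, the E-score, was assigned to each ungapped eight-base word pooled with its reverse complement by the Universal PBM Analysis Suite.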
row,Sequence,PBM E-score
1,GTCAGGAA,0.179
2,ACGCTGAT,0.174
3,AACCGGCT,-0.357
4,GTAAAATA,0.184
5,ATAGCTTG,-0.0303
6,CTCGCCCC,-0.256
7,ATAATAAG,0.127
8,TAGTAAGA,0.0529
9,AGGCTAAC,-0.0653
10,CGGCGGTC,-0.32
11,CCTCACTC,-0.0833
12,CAACACCC,-0.18
13,GTGTTGTA,0.175
14,CTCCAGAA,0.058
15,ACATCTAT,0.21
16,AACAAGTC,-0.0521
17,CTCGGGGA,-0.209
18,AAGACATA,0.186
19,GGACATAA,0.0688
20,AGCACCCC,-0.265
21,GTGAGTTA,0.126
22,AGTGATGA,0.21
23,CGCGGGAA,-0.062
24,ATGGGGCA,-0.185
25,CAACTGAA,0.00872

row,Sequence,PBM E-score
1,GGAGATCA,-0.167
2,ACCCAGGC,-0.132
3,CCGCCGAA,-0.091
4,CTCGCAAG,0.0771
5,AGTATTAA,0.261
6,CACGGGAC,-0.234
7,GCCCAAGC,-0.124
8,AATGCGAC,0.145
9,AGTAGCGC,-0.0271
10,GCTTGGAC,-0.317
11,GGTCGCCA,-0.327
12,GCAGCCGC,-0.257
13,CTAAATTA,0.2
14,AAAACTTG,0.0918
15,CGGGCCAC,-0.187
16,CCATCCTA,-0.104
17,ACTAGTGA,0.0867
18,ATTAACCC,-0.0391
19,TAGAATCA,0.0343
20,CTCCCTTA,-0.122
21,CCCATGTC,0.0687
22,CCCAATGA,0.217
23,AAGGTGCT,-0.238
24,TCGAAAGA,0.0545
25,GACTAGGC,-0.0713

row,Sequence,PBM E-score
1,CTAAGCAC,0.0719
2,CTCCATCC,-0.385
3,AACAACCA,0.109
4,GGTATGGA,-0.0634
5,CATCACGG,0.107
6,ACGCGTAG,0.259
7,ATACAAGA,-0.0628
8,GGATCTAC,-0.0498
9,AACTGACC,-0.297
10,CGATGTAA,0.175
11,GAACTGGC,-0.125
12,ACTACGCG,0.245
13,AGACCACA,-0.167
14,CCGAATCG,-0.0905
15,AGAAGAGC,-0.0561
16,AAACGTCG,0.238
17,AATTATGT,0.319
18,AGAGACGA,0.0256
19,ACCGTTCC,-0.0907
20,CCGTGAGC,-0.259
21,CACCAGTA,-0.0506
22,GCAGTGGC,-0.0897
23,ATAGGGGC,-0.106
24,TCAACCGA,0.204
25,CAGTATGG,-0.0599

row,Sequence,PBM E-score
1,AAACTGGA,-0.119
2,CATTACAA,0.223
3,AAACATAT,0.192
4,CGATCGTC,0.103
5,CAGCGTAA,0.213
6,CCACAGTC,-0.363
7,AAGTGCCA,-0.119
8,CGAAAAAC,0.117
9,GGATGCAA,-0.0635
10,GTTGTGGA,0.087
11,CCCGTCCC,-0.344
12,CGAGCATA,-0.0609
13,GTAACTGA,0.126
14,CAAGGCTC,-0.344
15,AGGTAGGA,-0.0889
16,GACCTAAA,0.0225
17,GAAAGCAA,0.0289
18,ACACGATA,0.0915
19,TGGTCCAA,-0.135
20,CTAGGGAG,-0.148
21,CCGTAAGA,-0.0187
22,CTAGAACA,-0.0107
23,ACCTTAGC,-0.0228
24,GGGCCCCC,-0.394
25,TGAGCGAA,0.21

row,Sequence,PBM E-score
1,AACCCCGA,-0.15
2,AGGGTCAT,-0.0117
3,AGCGTACG,0.214
4,CTGGCTGA,-0.185
5,GTGTAGTA,-0.12
6,AACGTCGT,0.247
7,AGTCGCAA,0.0716
8,ATTAATAG,0.178
9,AAGGCCCT,-0.0873
10,CCCACCAA,-0.168
11,CTCAAAGC,-0.0911
12,AGTTGGAA,-0.00844
13,AATCGGTA,0.0551
14,CATTCGCA,0.026
15,GAATGTGA,0.118
16,TCACCTAA,0.199
17,GAGAGCTC,-0.268
18,AATCGCGT,0.234
19,CTCCACTA,-0.0474
20,ATCAGTTC,-0.037
21,AGATCCAG,-0.202
22,CGCCAGCA,-0.0811
23,TATATGCA,0.179
24,CAACAACA,0.238
25,GTAGTAGA,-0.00687

row,Sequence,PBM E-score
1,GCTGGCGA,-0.203
2,CGGAGCAG,-0.167
3,ATGCCTCA,-0.104
4,CAGTGGAC,-0.0326
5,TAGTCGAA,0.03
6,AGTACGAA,0.312
7,ATGCCACC,-0.316
8,CGGCGAGA,-0.106
9,CTACATAC,0.255
10,ATTATAGC,0.0343
11,AATGCCAG,-0.119
12,CCTGCATC,-0.1
13,ACGATACT,0.0296
14,ATGCGTAG,0.3
15,GTCGTTCA,0.0986
16,GATTTAAC,0.0539
17,CTACGGCA,-0.0673
18,CCGGCCAA,-0.324
19,CTGTGTTA,-0.0224
20,GGTTTCTA,0.041
21,ATTATCCA,0.103
22,CTGTAGGC,-0.0381
23,TCTCATCA,0.162
24,ATTAATCG,0.108
25,ATCACTTA,0.191

row,Sequence,PBM E-score
1,GTGGGGCA,-0.102
2,GGCTCTGA,-0.0294
3,CTACACTA,-0.0982
4,GGTGTAAA,-0.152
5,CACGTTAC,0.305
6,CTTACTTA,0.0934
7,ACAGGTCG,-0.23
8,AACCAACC,-0.221
9,ATAGTTAC,0.212
10,AATTGTGG,0.0768
11,ATATACCC,-0.0622
12,ATGAGAAT,0.14
13,CGCGAGCG,-0.0364
14,AAGACACT,-0.0347
15,AGGTCTGG,-0.0636
16,CTATACAG,-0.132
17,CGCACGAG,-0.0949
18,AGTTCTTA,-0.0476
19,CGGTGCGC,-0.256
20,CACTGCTC,-0.0831
21,CACGTCTA,0.314
22,GGTTATAC,0.0927
